Assay results taken from PMC4336329 (PLoS ONE, 2015).
The campaign covered roughly 310,000 compounds. About 14,000 (4.5%) showed an effect of 50% or more. The effect is printed as a negative number. The list shows a part of the results.

Biological target: human ether-à-go-go-related gene (hERG) potassium channel (human, UniProt Q12809)
Experiment: primary screen, population patch clamp on CHO cells stably expressing hERG
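Also: peak tail current of the secondary pulse compared with the same well before compound.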

human ether-à-go-go-related gene (hERG) potassium channel, sequence (Q12809 whole entry, looked up): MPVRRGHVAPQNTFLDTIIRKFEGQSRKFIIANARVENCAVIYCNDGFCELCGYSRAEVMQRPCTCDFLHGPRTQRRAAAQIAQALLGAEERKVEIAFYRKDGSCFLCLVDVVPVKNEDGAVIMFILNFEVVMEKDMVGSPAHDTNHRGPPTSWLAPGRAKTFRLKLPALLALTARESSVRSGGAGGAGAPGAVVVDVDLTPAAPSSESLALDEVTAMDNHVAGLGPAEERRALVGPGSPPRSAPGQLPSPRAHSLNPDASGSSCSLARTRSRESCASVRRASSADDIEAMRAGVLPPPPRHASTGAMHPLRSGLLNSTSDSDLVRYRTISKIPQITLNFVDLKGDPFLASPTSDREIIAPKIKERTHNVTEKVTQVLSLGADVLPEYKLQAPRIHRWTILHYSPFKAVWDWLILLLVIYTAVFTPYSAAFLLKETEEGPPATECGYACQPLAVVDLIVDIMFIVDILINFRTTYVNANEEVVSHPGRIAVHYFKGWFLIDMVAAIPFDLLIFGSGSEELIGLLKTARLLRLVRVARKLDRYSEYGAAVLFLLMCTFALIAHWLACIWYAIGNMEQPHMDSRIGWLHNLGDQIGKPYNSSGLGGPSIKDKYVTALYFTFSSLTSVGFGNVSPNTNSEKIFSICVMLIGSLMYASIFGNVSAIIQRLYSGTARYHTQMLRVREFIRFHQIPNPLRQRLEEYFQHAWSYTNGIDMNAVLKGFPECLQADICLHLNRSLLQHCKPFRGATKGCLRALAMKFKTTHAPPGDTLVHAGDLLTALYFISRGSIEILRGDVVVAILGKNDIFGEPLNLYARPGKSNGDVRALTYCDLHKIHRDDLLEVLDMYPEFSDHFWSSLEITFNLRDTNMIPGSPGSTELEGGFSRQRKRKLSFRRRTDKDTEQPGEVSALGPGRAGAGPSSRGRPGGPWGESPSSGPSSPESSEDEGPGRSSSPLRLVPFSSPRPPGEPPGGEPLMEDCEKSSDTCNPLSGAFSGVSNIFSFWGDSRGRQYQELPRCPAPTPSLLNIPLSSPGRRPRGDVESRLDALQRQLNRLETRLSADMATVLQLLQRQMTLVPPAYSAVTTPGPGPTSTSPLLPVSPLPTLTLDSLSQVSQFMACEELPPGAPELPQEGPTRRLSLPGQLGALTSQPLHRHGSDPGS

Structure (SMILES) | hERG current change (%, negative = inhibition) at 10uM [%]
Cc1ccc(CN2CC(C(=O)N(Cc3nnc(-c4ccccc4Cl)o3)C3CC3)CC2=O)cc1 (stereo not shown) | -45.2
COc1cc(/C=C/C(=O)O)cc(S(=O)(=O)Nc2cc(Cl)c(Cl)cc2Cl)c1OC | 9.1
CC(C)C(c1nnnn1CC1CCCO1)N1CCN(C2CCCC2)CC1.Cl (stereo not shown) | 9.3
COc1ccc(CNC(=O)CCNC(=O)N2CCn3c2nc2ccccc23)cc1 | -14.5
Cc1ccc2[nH]cc(S(=O)(=O)c3ccc(C)c(C)c3)c(=O)c2c1 | 16.4
COc1ccc(OCC(=O)O/N=C(\N)c2ccc(OC)cc2)cc1 | -4.82
CSc1ccccc1NC(=O)CN(c1ccccc1)S(=O)(=O)N(C)C | -7.51
Cc1nn(CC(=O)N2CCN(c3ccccc3)CC2)c(C)c1[N+](=O)[O-] | -9.49
CCOC(=O)c1c(C)[nH]c(C(=O)CN(C)CC(=O)Nc2ccccc2Cl)c1C | -4.65
CC(=O)C1=C(O)C(=O)N(CCN2CCOCC2)C1c1ccccc1 (stereo not shown) | -7.76
CCc1cc2c(=O)c(-c3cnn(-c4ccccc4)c3)c(C)oc2c(CN2CCCCC2)c1O | -28.8
O=C(c1nc2ccc(Cl)cn2c1CN1CCCC(CO)C1)N1CCc2ccccc2C1 (stereo not shown) | -5.4
CC(C)OCCCNC(=O)CN1C(=O)CC(C)(C)S(=O)(=O)c2ccccc21 | 15.2
Cc1cc(C)c2c(-n3cccc3)c(C(=O)NNS(=O)(=O)c3ccc(F)cc3)sc2n1 | -32.1
O=C(Cc1ccccc1)Nc1ccc(S(=O)(=O)N2CCOCC2)cc1 | 6.77
COc1ccc(/C=C2\SC(=S)N(CC(=O)N3CCN(C)CC3)C2=O)cc1 | 4.95
CC(=O)c1ccc(S(=O)(=O)N2CCn3cccc3C2C)cc1 (stereo not shown) | 4.91
O=C(COC(=O)COc1ccccc1)NCc1ccccc1 | 9.26
COc1ccc([C@@H]2C[C@@H](c3ccccc3)Oc3c(C)ccc(C(C)C)c32)cc1 | 13.3
O=C(NCCc1nc2ccccc2[nH]1)/C(=C/c1ccco1)NC(=O)c1ccco1 | -17.3
NC(=O)CSc1nnc(COc2ccccc2)n1CCc1ccccc1 | -34.5
CCCSc1nc2cc(C)c(C)cc2n1CC(C)O (stereo not shown) | -1.84
Cc1ccc(NC(=O)NNC(=O)c2ccc3c(c2)NC(=O)C(C)(C)O3)cc1 | 13.9
CCOc1ccc(C(=O)NCc2ccc3c(c2)OCO3)cc1OCC | 6.63
O=C(CSc1nnc(CNC(=O)c2cccc(C(F)(F)F)c2)o1)NC1CCCCC1 | 10.5
CCn1c(CSCc2ccc(F)cc2)nnc1SCC(=O)NCc1ccccc1 | -10.1
COc1ccc(CCNC(=O)C2CC3Cn4c(nc5cc6ccccc6cc54)C3N2C)cc1 (stereo not shown) | -43.7
CC(C)c1ccc(C(=O)NC(=S)Nc2ccc3[nH]c(=O)[nH]c3c2)cc1 | -4.31

Structure (SMILES) | hERG current change (%, negative = inhibition) at 10uM [%]
CCNC(=O)n1cc(-n2cncn2)c(-c2ccc(Cl)cc2)n1 | -44.9
O=C(Cn1cc(SCc2cccc(Cl)c2)c2ccccc21)N1CCOCC1 | -33.1
COC(=O)/C=c1/s/c(=C(/C#N)C(=O)N2CCOCC2)n(-c2ccccc2)c1=O | 15.3
CCOC(=O)c1c(C)[nH]c(C(=O)COC(=O)c2oc3ccc(OC)cc3c2C)c1C | 6.45
CCN(CC)c1ccc(NC(=O)c2cnc3ccccn3c2=O)c(C)c1 | 4.51
CCOc1ccc(-n2c(SC(C)C(=O)OC)nc3c(c2=O)SCC3)cc1 (stereo not shown) | -9.11
COc1cc(NC(=O)CN(C)C2CCCCC2)c(C)cc1[N+](=O)[O-] | -17
CCc1nc(SCC(=O)Nc2ccccc2C(=O)OC)n[nH]1 | 10.3
O=C(Cn1nnc(-c2ccccc2F)n1)NCCc1ccccc1 | -6.61
COc1ccc(N(CC(=O)Nc2cccc3ccccc23)S(C)(=O)=O)c(OC)c1 | -4.5
CCN(CC(=O)NCc1ccncc1)S(=O)(=O)c1cc(Cl)ccc1Cl | -21.4
COc1ccc(Cc2nnc3n2N=C(c2cc4ccccc4o2)CS3)cc1OC | -1.14
Cc1cc(C)c(N=C2SCC(=O)N2Cc2ccco2)c(C)c1 | -14
c1ccc(-c2csc(-n3cnnn3)n2)cc1 | -8.83
COC(=O)c1ccc(Cn2cc(C(F)(F)F)cc([N+](=O)[O-])c2=O)cc1 | 14.1
O=C(Nc1c(-c2ccc(F)cc2)nc2ccccn12)c1ccc(F)cc1 | -14.8
CCC(=O)Nc1nc(C)c(C(=O)NC2CCCCC2)s1 | 5.95
CCC(NC(=O)c1ccncc1)c1ccccc1 (stereo not shown) | 16
Cc1cc(C)n(C(C)CNS(=O)(=O)c2ccc(Cl)cc2)n1 (stereo not shown) | 15.1
CCOc1ccc(/C=N/NC(=O)c2cc3ccccc3cc2OC)cc1 | -14.3
CC(CC(=O)NC1CCCCC1)S(=O)(=O)c1ccc2c(c1)NC(=O)CO2 (stereo not shown) | 5.72
O=C(O/N=C1/CCCc2occc21)c1ccc(Cl)cc1Cl | 11.7
C[n+]1cc(-c2ccccc2)n2c1CCCCC2.[I-] | 4.03
COc1ccc(/C=N/NC(=O)c2ccc(NC(=O)c3ccccc3Br)cc2)cc1 | 6.43
COc1cc(OC)c(OC)cc1CNCCSc1nnnn1C.Cl | 18.8
COc1cc(/C=C(\NC(=O)c2ccccc2)C(=O)NC(C(=O)O)c2ccccc2)cc(OC)c1OC (stereo not shown) | 0.146
COc1ccc(-c2cc(=O)oc3c(O)c(O)ccc23)cc1 | 4.01
